According to publication PMC4336329 (PLoS ONE, 2015):
Out of some 310,000 compounds screened, about 2,200 (0.71%) showed an effect of 50% or more. Effects have a minus sign here. The list shows a part of the results.

target: human ether-à-go-go-related gene (hERG) potassium channel (human, UniProt Q12809); assay: primary screen, population patch clamp on CHO cells stably expressing hERG
Sequence (Q12809 whole entry, looked up): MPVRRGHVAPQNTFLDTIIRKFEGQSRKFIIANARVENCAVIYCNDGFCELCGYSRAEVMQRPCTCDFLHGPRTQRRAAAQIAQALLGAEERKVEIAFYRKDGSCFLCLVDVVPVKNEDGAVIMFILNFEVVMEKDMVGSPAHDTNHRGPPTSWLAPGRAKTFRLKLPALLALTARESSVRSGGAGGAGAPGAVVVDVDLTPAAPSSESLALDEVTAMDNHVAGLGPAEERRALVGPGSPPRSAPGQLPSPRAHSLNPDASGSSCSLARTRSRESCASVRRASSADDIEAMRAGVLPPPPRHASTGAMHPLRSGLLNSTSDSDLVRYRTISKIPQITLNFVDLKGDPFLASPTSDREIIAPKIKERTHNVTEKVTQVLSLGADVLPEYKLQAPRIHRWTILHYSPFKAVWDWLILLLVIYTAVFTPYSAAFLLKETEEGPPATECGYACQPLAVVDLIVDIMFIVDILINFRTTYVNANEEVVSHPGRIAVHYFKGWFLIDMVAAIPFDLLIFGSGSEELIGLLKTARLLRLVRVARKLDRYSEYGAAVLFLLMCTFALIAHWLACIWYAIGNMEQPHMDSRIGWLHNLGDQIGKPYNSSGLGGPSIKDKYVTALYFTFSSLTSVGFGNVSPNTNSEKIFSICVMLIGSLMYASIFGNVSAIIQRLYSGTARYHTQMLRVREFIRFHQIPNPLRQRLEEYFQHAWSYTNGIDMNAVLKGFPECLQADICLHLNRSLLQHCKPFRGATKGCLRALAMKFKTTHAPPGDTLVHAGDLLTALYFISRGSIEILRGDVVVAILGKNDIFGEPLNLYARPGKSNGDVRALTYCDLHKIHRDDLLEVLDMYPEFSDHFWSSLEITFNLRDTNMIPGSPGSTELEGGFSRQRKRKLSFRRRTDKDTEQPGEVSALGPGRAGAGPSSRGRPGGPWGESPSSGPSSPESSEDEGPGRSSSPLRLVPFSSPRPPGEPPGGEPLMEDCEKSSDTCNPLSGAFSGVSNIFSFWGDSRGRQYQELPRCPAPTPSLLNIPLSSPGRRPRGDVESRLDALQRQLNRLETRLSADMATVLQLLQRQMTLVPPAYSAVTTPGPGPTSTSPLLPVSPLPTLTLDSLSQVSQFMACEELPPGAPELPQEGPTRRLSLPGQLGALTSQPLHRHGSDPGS

Row | Compound | hERG current change (%, negative = inhibition) at 1uM
1 | CC(NC(=O)c1cc(S(=O)(=O)N(C)C)ccc1N1CCCC1)C1CC2CCC1C2 (stereo not drawn) | -1.38%
2 | CC(C)(C)c1cc(=O)n(-c2ccccc2)[nH]1 | 9.5%
3 | CCOc1cccc(CNc2ccc(O)cc2)c1OCc1ccc(Cl)cc1 | 14.4%
4 | CCNC(=S)N1C2CCC1CC(NC(=O)NC1CCCCC1)C2 (stereo not drawn) | 5.51%
5 | Cc1cccc(-c2c(NC(=O)c3ccco3)oc3c(C)cccc3c2=O)c1 | 13.1%
6 | NC(=O)C1CCN(C(=O)CCc2ccsc2)CC1 | 13.7%
7 | CN(C)C=Nc1nonc1-c1ncn[nH]1 | 7.39%
8 | Cc1ccccc1C(=NC(=O)c1ccccc1)c1ccccc1 | -0.799%
9 | CCOC(=O)CCC(=O)Nc1ccccc1C(N)=O | 0.175%
10 | CCOc1ccc(-n2c(SCC(=O)NCc3ccco3)nc3c([nH]c4ccccc43)c2=O)cc1 | 5.3%
11 | Nc1nc2ccc(Cl)cc2c2nc(-c3ccco3)nn12 | 12.5%
12 | O=C1CCCC(O)=C1N=Nc1c(Cl)cc(C(F)(F)F)cc1Cl | 14.6%
13 | COc1ccccc1N=Cc1c(O)c2ccccc2oc1=O | 1.01%
14 | COc1ccc(CNC(=O)C/C(C)=N/NC(=O)Cc2ccc(OC)cc2)cc1 | 16.9%
15 | C=CCN=C(NC#N)SCCc1ccccc1 | 11.8%
16 | CCOc1ccc(S(=O)(=O)N2CCC(C(=O)NCCc3ccccc3)CC2)cc1 | 16.6%
17 | O=C(NCCCNC(=O)c1cccs1)c1cccs1 | 12%
18 | Cc1cnc(C(=O)OCC(=O)c2c[nH]c3ccccc23)cn1 | 8.34%
19 | Cc1ccc(NC(=O)c2ccc(C(C)(C)C)cc2)cc1[N+](=O)[O-] | 11.2%
20 | CCOC(=O)Nc1ccc(S(=O)(=O)NCCCN2CCOCC2)cc1 | 2.7%
21 | O=C(COC(=O)CNC(=O)c1ccc([N+](=O)[O-])o1)Nc1ncc(Cl)cc1Cl | -10.7%
22 | COc1ccc(N(CC(=O)NCc2ccc(Cl)cc2)S(=O)(=O)c2c(C)noc2C)cc1 | 13.8%
23 | Cc1[nH]c2ccccc2c1C(=O)C(=O)N1CCOCC1 | 11.4%

Row | Compound | hERG current change (%, negative = inhibition) at 1uM
24 | Cc1ccc2[nH]c3c(c2c1)CCCC3NC(=O)CCl (stereo not drawn) | 13.7%
25 | CCCCC[C@H](O)/C=C/[C@@H]1[C@@H](CCCCCCC(=O)O)[C@@H](O)C[C@H]1O | 11%
26 | CNCCC=C1c2ccccc2C=Cc2ccccc21 | 17.8%
27 | Cc1nn(CCC(=O)Nc2cccc(C#N)c2)c(C)c1S(=O)(=O)N1CCCCC1 | 10.3%
28 | CN(C(=O)COC(=O)c1cc(S(=O)(=O)N2CCOCC2)ccc1Cl)C1CCS(=O)(=O)C1 (stereo not drawn) | 7.57%
29 | CC(C)(C)CN1CCNC[C@H]1Cc1ccc(O)cc1 | 2.08%
30 | CCN1/C(=C/c2ccc3ccccc3[n+]2CCCS(=O)(=O)[O-])C=Cc2cc(C)ccc21 | 13%
31 | Nc1nncn1C(=O)c1cc(Br)ccc1Cl | 12%
32 | CCCCc1nc2cc(C(=O)N3CCNC(=O)C3CC(=O)OC)ccc2o1 (stereo not drawn) | 16%
33 | CCN=C(NS(=O)(=O)c1ccc(Br)cc1)c1ccc(Cl)cc1 | 10.6%
34 | Cc1ccc(SCC(=O)c2c(C)[nH]c3ccccc23)cc1 | 4.12%
35 | COc1ccc(C(=O)N2CCCCCC2)cc1OC1CCN(C(C)C)CC1 | 12.8%
36 | O=C(NC1CC2CCC(C1)N2Cc1nnnn1Cc1ccco1)NC12CC3CC(CC(C3)C1)C2 (stereo not drawn) | 7.2%
37 | C1COCCO1.Cn1c2c(c(=O)n(C)c1=O)C(c1ccccc1Cl)C(C#N)=C(N)O2 (stereo not drawn) | 6.06%
38 | CC(C)(C)NC(=O)NC(=O)CSc1n[nH]c(-c2ccccc2Br)n1 | -4.61%
39 | Cc1noc(C)c1S(=O)(=O)Nc1ccc(C#N)cc1 | 19%
40 | COc1ccc(S(=O)(=O)N2CCOCC2)cc1NC(=O)COC(=O)C1CC1C (stereo not drawn) | 6.73%
41 | Cc1cc(C)cc(NC(=O)C2C3C=CC4(O3)C2C(=O)N(CCCN2CCCCC2)C4C(=O)NC2CCCCC2)c1 (stereo not drawn) | 12.6%
42 | CCC(=O)N1CC(=O)Nc2ccc(Cl)cc2C1c1ccc(F)cc1 (stereo not drawn) | 4.47%
43 | O=C(COC(=O)CCSc1ccc(Cl)cc1)Nc1ccc(F)cc1 | 9.63%
44 | CC(=O)CC(c1ccccc1)c1c([O-])c2ccccc2oc1=O.[Na+] (stereo not drawn) | 17%
45 | COc1ccc(OC)c(C2NC(=O)NC(C)=C2C(=O)Nc2ccc(C)cc2C)c1 (stereo not drawn) | -13.8%
46 | CO/N=C/CC(=O)c1ccc([N+](=O)[O-])c(CS(=O)(=O)c2ccc(Cl)cc2)c1 | -1.85%

Row | Compound | hERG current change (%, negative = inhibition) at 1uM
47 | CC(=O)N1CCc2cc(S(=O)(=O)N3CCOCC3)ccc21 | 11.3%
48 | O=C(c1ccccc1)N1CCN(c2ccc([N+](=O)[O-])cc2-n2cccc2)CC1 | 12.1%
49 | O=C(CSCC(=O)NC1CC1)Nc1ccccc1 | 0.305%
50 | O=C(NCCc1ccc(C(F)(F)F)cc1)C1CCC(=O)N(CCCc2ccccc2)C1 (stereo not drawn) | -8.21%
51 | Cc1c(Br)c([N+](=O)[O-])nn1CCCC(=O)NC(C)c1ccccc1 (stereo not drawn) | 1.63%
52 | O=C(COC(=O)c1cccc(Br)c1)NCCNC(=O)COC(=O)c1cccc(Br)c1 | 20.7%
53 | Cc1oc2nc(SCC(=O)NC3CCCCC3)nc(N)c2c1C | -6.37%
54 | N#C/C(=C(/O)c1ccco1)c1nc2ccccc2[nH]1 | 13.9%
55 | CCCCOCP(=O)(CC)COCCCC | 11.5%
56 | COc1cc(C(=O)Nc2ccc(C)cc2)c(-n2cnnn2)cc1OC | 6.57%
57 | O=C(NC1CCCCC1)C(c1ccccc1F)N(Cc1ccco1)C(=O)c1ccccn1 (stereo not drawn) | 10%
58 | Cc1nnc(SCCn2c(N3CCCCCC3)nc3c2c(=O)[nH]c(=O)n3C)s1 | 1.51%
59 | COC(=O)CC1(C(=O)OC)Oc2ccc(Br)cc2C(=O)N1c1ccc(Br)cc1Cl (stereo not drawn) | 10.2%
60 | CN(C)S(=O)(=O)c1cccc(NC(=S)N2CCc3ccccc32)c1 | 18.2%
61 | Cc1ccc(N(C(=O)CNC(=O)c2ccco2)C(C(=O)NC2CCCCC2)c2cccnc2)c(C)c1 (stereo not drawn) | -30%
62 | Nc1nnc(Cc2ccc(F)cc2)s1 | 6.63%
63 | CNS(=O)(=O)c1cccc(C(=O)OCC(=O)Nc2ccc(-c3nc4ccc(C)cc4s3)cc2)c1 | 10.5%
64 | COc1ccc(NC(=O)CSc2cn[nH]n2)cc1OC | 19.8%
65 | CCN(CC)c1c([N+](=O)[O-])c(=O)n(CC)c2ccccc12 | 2.29%
66 | COc1ccc(/C(N)=N/OC(=O)c2ccco2)cc1 | 8.49%
67 | CCCC(=O)Nc1ccc(C(=O)N2CCCC2)cc1 | -3.99%
68 | C/C(=N/NC(=O)c1ccco1)c1cccnc1 | 16%
69 | CCOC(=O)c1c(NC(=O)C2=C(C)NC(=S)NC2c2ccc(C)cc2)sc(C)c1C (stereo not drawn) | 0.74%

Row | Compound | hERG current change (%, negative = inhibition) at 1uM
70 | COc1ccccc1N1C(=O)NC(=O)/C(=C/c2ccc3c4c(cccc24)CC3)C1=O | 9.58%
71 | COc1ccc(C)cc1NC(=O)C(OC(=O)CNC(=O)c1cc(C)cc(C)c1)c1ccccc1 (stereo not drawn) | 15.6%
72 | COc1cccc(NC(=O)[C@H](Cc2c[nH]c3ccccc23)NC(=O)[C@@H]2Cc3ccccc3CN2)c1 | -0.5%
73 | O=C(CCc1ccccc1)NCCCNC(=O)CCc1ccccc1 | 6.59%
74 | O=C(CSc1nnc(COc2cccc3cccnc23)o1)c1ccc(F)cc1 | 7.93%
75 | O=C(O)CC(NC(=O)c1sc2ccccc2c1Cl)c1ccc(OC2CCCC2)cc1 (stereo not drawn) | 2.85%
76 | O=C(c1ccc(F)cc1)N1CCN(c2ncccn2)CC1 | 6.96%
77 | Cc1cccc(CN2C[C@]34C=C[C@@H](C[C@@H]3S2(=O)=O)O4)c1 | 10.3%
78 | CCCn1c(=S)[nH]c2cc(C(=O)NCC3CCCO3)ccc2c1=O (stereo not drawn) | 10.9%
79 | C=CCN(c1nc(C)cc(OC)n1)S(=O)(=O)c1ccccc1 | 10.3%
80 | Cc1ccc(NC(=O)C2CC(=O)N/C(=N/N=C/c3ccco3)S2)cc1 (stereo not drawn) | 5.35%
81 | CN(C)C1=NC[C@H](Cc2ccccc2)N1CC1CCCCCC1 | 4.4%
82 | O=C(CCc1ccc(O)cc1)c1c(O)cc(O)cc1O | 12.6%
83 | O=C1NC(=O)C2(C(=O)N1)C(c1ccc(F)cc1)NC(=S)NC2c1ccc(F)cc1 (stereo not drawn) | 7.99%
84 | CCOC(=O)c1ccc(NC(=S)NCCCN2CCCC2=O)cc1 | 2.42%
85 | O=C(CSc1nnc(CNC(=O)c2c(F)cccc2F)o1)NCC1CCCO1 (stereo not drawn) | 3.41%
86 | CCc1ccc(C(=O)CSc2nc(N)cc(=O)[nH]2)cc1 | 14.7%
87 | O=C(CN1C(=O)COc2ccccc21)NCCC1=CCCCC1 | -6.54%
88 | COc1ccc(C(=O)CC(Nc2ccc([N+](=O)[O-])cc2)c2ccc(Cl)cc2)cc1 (stereo not drawn) | -8.72%
89 | CCOc1ccc(NC(=O)CN(C)C(=O)CCC2CCCCC2)cc1OCC | -5.88%
90 | CC(NC(=S)NCCCN1CCOCC1)C12CC3CC(CC(C3)C1)C2 (stereo not drawn) | 12.9%
